{
  "source": "patent US12371507B2",
  "about": "“CDCP1 antibodies and antibody drug conjugates” (Beth Israel Deaconess Medical Center, priority 2018, dated 2025)",
  "molecules": {"B1": {"name": "CP13E10-291: anti-CDCP1 antibody; heavy chain SEQ ID NO: 46, light chain SEQ ID NO: 17 (antibody)", "heavy": "EVQLVQSGAEVKKPGASVKVSCKASGYTFTSYYMHWVRQAPGQGLEWMGIINPSGGSTSYAQKFQGRVTMTRDTSTSTVYMELSSLRSEDTAVYYCARDGELRHFDQVYNYHYYMDVWGQGTTVTVSS[left out - human IgG1 constant region]", "light": "EIVLTQSPATLSLSPGERATLSCRASQSVGSYLAWYQQRPGQAPRLLIYDASNRATGIPARFSGSGSGTDFTLTISSLEPEDFAVYYCQQRANVFTFGQGTKVEIKRTVAAPSVFIFPPSDEQLKSGTASVVCLLNNFYPREAKVQWKVDNALQSGNSQESVTEQDSKDSTYSLSSTLTLSKADYEKHKVYACEVTHQGLSSPVTKSFNRGEC"}, "B2": {"name": "antibody 23: anti-CDCP1 antibody; heavy chain SEQ ID NO: 51, light chain SEQ ID NO: 58 (antibody)", "heavy": "QVQLVQSGAEVKKPGSSVKVSCKASGGTFSSYAISWVRQAPGQGLEWMGGIIPIFGTANYAQKFQGRVTITADKSTSTAYMELSSLRSEDTAVYYCARDPTYFDWTRRGYYYMDVWGKGTTVTVSS[left out - human IgG1 constant region]", "light": "SYELTQPPSVSVSPGQTARITCSGDALPKKYAYWYQQKSGQAPVLVIYEDSKRPSGIPERFSGSSSGTMATLTISGARVEDEADYYCYSTDSSDNHRKGFGGGTKLTVLGQPKAAPSVTLFPPSSEELQANKATLVCLISDFYPGAVTVAWKADSSPVKAGVETTTPSKQSNNKYAASSYLSLTPEQWKSHRSYSCQVTHEGSTVEKTVAPTECS"}, "B3": {"name": "antibody 76: activating anti-CDCP1 antibody; heavy chain SEQ ID NO: 51, light chain SEQ ID NO: 74 (antibody)", "heavy": "B2 heavy", "light": "B2 light with Y33F, R60K, R78Q, H96P, K98G, G99V"}, "B4": {"name": "antibody 24: non-activating anti-CDCP1 antibody; heavy chain SEQ ID NO: 64, light chain SEQ ID NO: 70 (antibody)", "heavy": "QVQLVESGGGVVQPGRSLRLSCAASGFTFSSYGMHWVRQAPGKGLEWVAVISYDGSNKYYADSVKGRFTISRDNSKNTLYLQMNSLRAEDTAVYYCARGVGLPDIWGQGTMVTVSS[left out - human IgG1 constant region]", "light": "EIVMTQSPDTLSLSPGERATLSCRASQKIYYSYLAWYQQKPGQAPRLLISGASTRASDISDRFSGGGSGTDFTLTINSLESEDAAVYYCQQYDSLPVTFGRGTKLEIKRTVAAPSVFIFPPSDEQLKSGTASVVCLLNNFYPREAKVQWKVDNALQSGNSQESVTEQDSKDSTYSLSSTLTLSKADYEKHKVYACEVTHQGLSSPVTKSFNRGEC"}, "B5": {"name": "CP13E10: anti-CDCP1 human IgG1 antibody; heavy chain SEQ ID NO: 10, light chain SEQ ID NO: 17 (antibody)", "heavy": "B1 heavy with E101V, H104Y, Q107W, V108L, Y109L, N110D, H112Y, Q120K", "light": "B1 light"}},
  "key": {"mouse CDCP1-ECD": {"target": "T1, mouse CDCP1-ECD (Mus musculus, UniProt Q5U462)", "T1 construct": "6-histidine purification tag (N); made in house; host or cells: HEK293 (transient)", "T1 sequence (Q5U462 30-667)": "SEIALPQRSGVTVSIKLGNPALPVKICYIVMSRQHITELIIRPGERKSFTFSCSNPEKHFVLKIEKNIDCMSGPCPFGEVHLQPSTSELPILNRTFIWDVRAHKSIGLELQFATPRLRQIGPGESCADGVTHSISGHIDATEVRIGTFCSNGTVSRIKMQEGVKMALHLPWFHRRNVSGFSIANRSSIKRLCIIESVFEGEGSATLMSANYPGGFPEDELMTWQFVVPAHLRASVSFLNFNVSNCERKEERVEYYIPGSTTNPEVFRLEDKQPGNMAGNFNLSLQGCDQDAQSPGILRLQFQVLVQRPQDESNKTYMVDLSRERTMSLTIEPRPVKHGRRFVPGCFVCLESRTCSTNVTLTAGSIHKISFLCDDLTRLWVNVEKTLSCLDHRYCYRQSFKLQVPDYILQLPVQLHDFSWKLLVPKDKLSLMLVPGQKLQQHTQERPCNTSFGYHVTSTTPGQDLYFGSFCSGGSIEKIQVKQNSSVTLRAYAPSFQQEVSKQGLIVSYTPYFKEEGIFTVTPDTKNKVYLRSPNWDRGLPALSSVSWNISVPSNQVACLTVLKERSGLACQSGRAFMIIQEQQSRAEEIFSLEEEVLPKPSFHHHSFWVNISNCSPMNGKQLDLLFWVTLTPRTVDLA", "assay": "Surface plasmon resonance (Biacore T200) binding kinetics", "conditions": "SPR, 25° C.", "protocol": "Specifically, the binding kinetics of anti-CDCP1 antibodies against recombinant human, cynomologus monkey and mouse CDCP1-ECD were determined using surface plasmon resonance (SPR) and a Biacore T200 instrument (GE Healthcare). An anti-human IgG antibody was amine coupled onto a CM5 carboxymethylated dextran sensor chip surface (GE Healthcare), using the manufacturer's recommendations, to densities of approximately 10,000-13,000 response units (RU). Each anti-CDCP1 antibody was diluted to 0.5 pg/mL in 10 mM HEPES pH 7.4, 0.15 M NaCl, 3 mM EDTA, 0.05% P-20 (HBS-EP+) and captured for about 20-23 seconds at a flow rate of 10 μL/min. Four 3-fold dilutions of CDCP1-ECD, ranging from 1,800 nM to 66.7 nM, were injected at a flow rate of 50 μLs/minute, associated for 54 seconds, and dissociated for 90 seconds. The sensorchip surface was regenerated with three 30 second pulses of 3M MgCl2 at a flow rate of 50 μL/minute. All injections used HBS-EP+ as both the running and sample buffer and were performed at 25° C. with a data collection rate of 1 Hz. Sensorgrams were double referenced by using both a control surface and buffer injections. Rate constants were determined by fitting the data to a 1:1 model with Biacore T200 evaluation software v3.0 and the equation KD=kd/ka."}, "[1]": {"system": "CDCP1 tyrosine phosphorylation", "assay": "CDCP1 activation by short-term antibody treatment (western blot)", "assay_type": "cell-based, human", "conditions": "for activating or non-activating antibody: PC3 cells", "protocol": "(§1) In a variety of experimental approaches, CDCP1 antibodies also were tested for their ability to activate CDCP1 and its downstream targets. Short-term treatment of cells with antibodies stimulated CDCP1 tyrosine phosphorylation as well as downstream phosphorylation of SFKs and PKCδ in several lung (H1299) and breast cancer (MDA-MB-231) cell lines and a normal breast epithelial (MCF10A) cell line (FIG. 18A-18C)."}, "[2]": {"system": "CDCP1 expression and phosphorylation", "assay": "CDCP1 degradation by prolonged antibody treatment (western blot)", "assay_type": "cell-based, human", "conditions": "MDA-MB-231, MDA-MB-468 and H1299 cells", "protocol": "as §1"}, "[3]": {"system": "H1299, MDA-MB-231, MCF10A and DLD-1 cells", "assay": "Transwell cell migration assay", "assay_type": "cell-based, human", "conditions": "MDA-MB-231 and H1299 cells", "protocol": "(§2) The effect of CDCP1 antibody treatment on cell migration and invasion was also tested due to the known positive role of CDCP1 in the regulation of these cellular processes.\n(§3) The effect of CDCP1 antibody treatment on cell migration and invasion was also tested due to the known positive role of CDCP1 in the regulation of these cellular processes. […] In contrast, the treatment of MCF10A and DLD-1 cells with CDCP1 antibody produced an increase in cell migration. The opposite effects of CDCP1 antibodies on processes associated with tumor formation and growth may be due to the contrasting effects of CDCP1-activating antibodies on AKT activity in different cells, since AKT plays a positive role in migration in most cells. CDCP1-activating antibodies reduced the basal AKT phosphorylation (activity) in 1H1299 and H1373 cells, but had no effect on AKT in MCF10A, H1975, and HCT116 cells (FIG. 23A-23B). The contrasting effects of the antibodies on AKT activity in H1299 and MCF10A cells are consistent with their respective effects on cell invasion."}, "[4]": {"system": "H1299 and MDA-MB-231 cells", "assay": "Three-dimensional (3D Matrigel) tumor cell invasion assay", "assay_type": "cell-based, human", "conditions": "MDA-MB-231 and H1299 cells", "protocol": "as §2, §3"}, "AKT": {"system": "AKT", "assay": "Basal AKT activity / AKT phosphorylation (western blot)", "assay_type": "cell-based, human", "conditions": "for basal AKT activity and AKT substrate phosphorylation: PC3 cells", "protocol": "as §3\nThis inhibition was transient after an 80% reduction within 20 min, during prolonged antibody exposure the AKT phosphorylation returned towards the initial levels coincident with a reduction in the expression of CDCP1 protein expression."}, "[5]": {"system": "CDCP1 binding partners in PC3 cells", "assay": "Immunoprecipitation of CDCP1 binding partners with antibodies bound to intact cells", "assay_type": "cell-based, human", "conditions": "80 min, 4° C.", "protocol": "To gain a greater understanding of the biological roles of CDCP1 and effects of CDCP1 antibody treatments, studies were performed to evaluate the involvement of CDCP1 on other downstream proteins and signaling pathways. […] Antibodies were added to intact cells (80 min, 4° C.). Negative control antibody and 24 (5 μg/ml); 76 (20 ng/m)."}, "[6]": {"assay": "Analytical Hydrophobic Interaction Chromatography (HIC), relative hydrophobicity by elution time", "assay_type": "physicochemical", "conditions": "TSKgel Butyl-NPR column, 1.5 M to 0 M ammonium sulfate gradient", "text": "Multi-parametric optimization of anti-CDCP1 antibody CP13E10 was facilitated using rational design engineering. The structure of CP13E10 Fab in complex with CDCP1-ECD was solved with 1.9 Å resolution and used to design rational phage display libraries to enable identification of CP13E10 variants with improved biophysical properties while maintaining CDCP1 binding properties. CP13E10 antibody hydrophobicity was reduced to facilitate efficient conjugation processes for producing antibody drug conjugates (ADCs) by incorporating three point mutations (Y(H100)H, W(H100C)H, Y(H100H)H) into CP13E10 CDRH3 (CP13E10-34 variant). Protein for characterization was generated by transiently transfecting DNA encoding the anti-CP13E10-34 antibody variant and parental CP13E10 antibody into HEK-293 cells and the resultant protein was Protein-A affinity purified and buffer exchanged into PBS-CMF pH7.2 using G-25 columns."}},
  "note": "Positions count from the first letter of the chain named.",
  "data": [
    {"molecule": "B1", "values": [
      {"measurement": "fold increase in affinity for mouse CDCP1 versus CP13E10-34", "setting": "mouse CDCP1-ECD", "value": 14, "unit": "fold"},
      {"measurement": "activating or non-activating antibody", "setting": "[1]", "value": "activating"},
      {"measurement": "CDCP1 activation", "setting": "[1]; short-term (5 min) treatment, H1299, MDA-MB-231 and MCF10A cells", "value": "CDCP1 activation"},
      {"measurement": "CDCP1 degradation", "setting": "[2]", "value": "CDCP1 degradation"},
      {"measurement": "cell migration", "setting": "[3]", "value": "reduce"},
      {"measurement": "cell invasion", "setting": "[4]", "value": "decrease"},
      {"measurement": "basal AKT activity", "setting": "AKT; H1373 and H1299 cells", "value": "decrease"},
      {"measurement": "basal AKT activity", "setting": "AKT; MCF10A, H1975 and HCT116 cells", "value": "no effect"},
      {"measurement": "basal AKT activity and AKT substrate phosphorylation", "setting": "AKT", "value": "reduce basal AKT activity and AKT substrate phosphorylation"}
    ]},
    {"molecule": "B2", "values": [
      {"measurement": "activating or non-activating antibody", "setting": "[1]", "value": "activating"},
      {"measurement": "basal AKT activity", "setting": "AKT; H1373 and H1299 cells", "value": "decrease"},
      {"measurement": "basal AKT activity", "setting": "AKT; MCF10A, H1975 and HCT116 cells", "value": "no effect"},
      {"measurement": "basal AKT activity and AKT substrate phosphorylation", "setting": "AKT", "value": "reduce basal AKT activity and AKT substrate phosphorylation"}
    ]},
    {"molecule": "B3", "values": [
      {"measurement": "activating or non-activating antibody", "setting": "[1]", "value": "activating"},
      {"measurement": "basal AKT activity and AKT substrate phosphorylation", "setting": "AKT", "value": "reduce basal AKT activity and AKT substrate phosphorylation"},
      {"measurement": "non-preferential partner binding", "setting": "[5]", "value": "β-Catenin, Transferrin Receptor, Importin-7"},
      {"measurement": "preferential CDCP1 partner binding", "setting": "[5]", "value": "SRC, PPP4R2"}
    ]},
    {"molecule": "B4", "values": [
      {"measurement": "activating or non-activating antibody", "setting": "[1]", "value": "non-activating"},
      {"measurement": "basal AKT activity and AKT substrate phosphorylation", "setting": "AKT", "value": "does not affect P-AKT"},
      {"measurement": "non-preferential partner binding", "setting": "[5]", "value": "β-Catenin, Transferrin Receptor, Importin-7"},
      {"measurement": "preferential CDCP1 partner binding", "setting": "[5]", "value": "PARG1"}
    ]},
    {"molecule": "B5", "values": [
      {"measurement": "HIC elution time", "setting": "[6]", "value": 48.63, "unit": "min"}
    ]}
  ]
}
